Measured values: the supplement of paper PMC12217912
The list shows a part of the results. Sequences were assembled here from the parent chain. Inactive controls read about 0.05.

B1: TEV protease; numbered along this chain (parent)
chain: MGESLFKGPRDYNPISSSICHLTNESDGHTTSLYGIGFGPFIITNKHLFRRNNGTLVVQSLHGVFKVKDTTTLQQHLVDGRDMIIIRMPKDFPPFPQKLKFREPQREERICLVTTNFQTKSMSSMVSDTSCTFPSGDGIFWKHWIQTKDGQCGSPLVSTRDGFIVGIHSASNFTNTNNYFTSVPKNFMELLTNQEAQQWVSGWRLNADSVLWGGHKVFMVKPEEPFQPVKEATQL

Variants of: B1
Test: raw area under fraction-flipped curve 0-4 h after induction (AUC4h, not background-subtracted), DNA-recorder readout of cleavage of the substrate (dimensionless); higher = more cleavage of the substrate by the protease variant
Conditions: temperature: 34 °C; time window: 0-4 h after rhamnose induction
Description: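 In vivo DNA recorder in E. coli TOP10(DE3) ΔrhaA at 34 °C. Each TEVp single-site mutant (parent TEVp 0) is paired with a single-site variant of the 7-mer TEVs (canonical ENLYFQ|S). The substrate sits between flexible linkers in a Bxb1-sfGFP-TEVs-SsrA fusion, so cleavage stabilises Bxb1 and speeds flipping of a recombination array, read by NGS. The value is the raw area under the fraction-flipped curve over 0-4 h after rhamnose induction (AUC4h), with ≥20 reads per time point. It is not background-subtracted; inactive controls average about 0.047.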
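Further: Bxb1 expression induced with 0.2% (w/v) L-rhamnose at OD600 near 0.5, cultures sampled hourly, flipped fraction per protease–substrate barcode pair counted by paired-end Illumina sequencing.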

Variant | area with substrate CNLYFQS | area with substrate DNLYFQS | area with substrate GNLYFQS | area with substrate INLYFQS | area with substrate KNLYFQS | area with substrate LNLYFQS | area with substrate MNLYFQS | area with substrate PNLYFQS | area with substrate TNLYFQS | area with substrate VNLYFQS | area with substrate WNLYFQS | area with substrate YNLYFQS | area with substrate HNLYFQS | area with substrate RNLYFQS | area with substrate FNLYFQS | area with substrate NNLYFQS | area with substrate QNLYFQS | area with substrate SNLYFQS
A170Y | 0.0588 | 0.0658 | 0.0607 | 0.0656 | 0.0609 | 0.0784 | 0.0482 | 0.0446 | 0.0575 | 0.0736 | 0.057 | 0.0647 | – | – | – | – | – | –
C20L | 0.0692 | 0.0823 | 0.0678 | 0.0655 | 0.0709 | 0.0685 | – | 0.0613 | 0.0553 | – | – | 0.0773 | 0.068 | 0.0686 | – | – | – | –
N53Q | 0.0676 | 0.0687 | – | 0.0686 | 0.0668 | 0.0795 | 0.0799 | 0.0567 | 0.061 | – | 0.0648 | 0.0654 | 0.054 | 0.0515 | 0.0906 | – | – | –
M219T | 0.058 | 0.0673 | 0.0665 | – | 0.0715 | – | – | 0.0719 | 0.0663 | – | – | 0.0569 | 0.0549 | – | – | 0.048 | 0.0576 | –
Q234S | 0.0672 | 0.0917 | 0.0685 | 0.0607 | 0.07 | – | 0.0842 | 0.072 | 0.0706 | – | 0.0567 | 0.0565 | 0.0627 | – | – | – | 0.0527 | –
P14E | 0.0792 | 0.0626 | – | – | 0.0815 | 0.0699 | – | – | 0.0456 | – | 0.0498 | 0.044 | 0.0971 | – | 0.0662 | – | – | 0.0679
S4Y | 0.0699 | 0.0967 | 0.0696 | – | 0.0706 | 0.0687 | 0.089 | 0.0951 | 0.0709 | – | 0.0708 | 0.0803 | 0.0693 | – | – | 0.0709 | – | –
I145V | 0.0668 | 0.1 | – | – | 0.0715 | 0.0665 | – | 0.0804 | 0.0783 | – | – | 0.0563 | 0.0589 | – | 0.0681 | – | 0.0757 | –
Y179A | 0.0467 | 0.0604 | – | – | – | – | 0.0596 | – | – | – | 0.0558 | – | 0.0427 | – | – | – | – | –
V220G | 0.0621 | 0.0771 | 0.0837 | 0.0584 | 0.0584 | 0.0656 | – | 0.0732 | 0.053 | – | 0.061 | 0.0662 | 0.068 | 0.0791 | 0.0524 | – | – | 0.094
D27S | 0.0322 | 0.0678 | – | 0.0688 | 0.0585 | 0.0638 | 0.0651 | 0.0548 | 0.0652 | 0.0924 | 0.057 | 0.0511 | 0.0475 | – | 0.0597 | 0.0607 | – | 0.0726
G213R | 0.0369 | 0.0599 | 0.062 | – | 0.0645 | 0.0584 | – | – | 0.0671 | 0.0598 | 0.0606 | 0.0577 | 0.0608 | 0.0495 | 0.054 | 0.055 | – | 0.0613
K185M | 0.0813 | 0.07 | 0.0707 | 0.064 | 0.0651 | 0.0661 | 0.0609 | 0.0764 | 0.0654 | – | 0.0513 | 0.0657 | 0.0657 | – | 0.0552 | – | 0.126 | –
F41A | 0.042 | 0.0745 | 0.0686 | 0.0026 | 0.0558 | 0.062 | – | 0.0574 | 0.0693 | – | 0.0459 | 0.0501 | 0.0565 | 0.0472 | – | 0.0699 | – | 0.0557
A196W | 0.0792 | 0.0847 | 0.067 | – | – | – | 0.0493 | 0.0724 | 0.0668 | – | 0.0508 | – | – | – | – | – | – | 0.0607
S123N | 0.0604 | 0.0764 | – | – | 0.0749 | – | 0.0705 | – | 0.091 | – | 0.0731 | 0.0722 | 0.0639 | 0.0695 | – | – | 0.0796 | 0.0611
R160W | 0.0764 | 0.101 | – | – | – | – | – | – | 0.0723 | – | 0.0656 | 0.0569 | – | – | – | – | – | –
R50C | 0.0821 | 0.0694 | – | – | – | 0.0527 | – | 0.0487 | 0.0623 | 0.0709 | 0.0694 | – | – | – | 0.0744 | – | – | 0.0655
H62I | 0.0641 | 0.0726 | – | – | – | 0.0683 | – | 0.0686 | 0.0579 | – | 0.0597 | – | 0.0477 | 0.0564 | – | 0.0772 | – | 0.0677
E103T | 0.0745 | 0.0723 | 0.0536 | 0.0666 | 0.0741 | 0.0573 | 0.0838 | – | 0.0656 | – | 0.0792 | – | 0.0671 | 0.0634 | – | – | – | 0.0625
S127L | 0.0692 | 0.0842 | 0.0609 | – | – | – | – | – | 0.0752 | – | – | – | 0.0543 | – | – | – | – | 0.0711
R204V | 0.0698 | 0.104 | 0.0592 | – | 0.076 | 0.0689 | 0.05 | 0.0704 | 0.0686 | 0.0646 | 0.0638 | 0.0681 | 0.0606 | 0.0445 | 0.055 | 0.0547 | 0.0274 | 0.0632
R102M | 0.0587 | 0.0474 | 0.0251 | 0.0474 | 0.0618 | 0.0607 | 0.088 | 0.0465 | 0.0491 | 0.0495 | – | 0.0536 | 0.0594 | – | 0.0594 | 0.0477 | – | –
Q105L | 0.0801 | 0.103 | – | – | – | 0.0741 | – | – | 0.0634 | 0.0615 | 0.0501 | 0.0626 | – | – | 0.0613 | – | – | –
Q151Y | 0.061 | 0.0539 | 0.0614 | 0.0517 | 0.055 | 0.0737 | 0.0756 | 0.0543 | 0.0681 | 0.0671 | 0.0534 | 0.0559 | 0.0508 | – | 0.0455 | 0.0693 | 0.0616 | 0.0607
E107L | 0.0504 | 0.0747 | – | – | – | – | – | – | – | 0.0464 | 0.0552 | – | – | – | – | 0.0635 | – | –
C111H | 0.0764 | 0.0822 | 0.0692 | 0.0593 | 0.0708 | 0.0676 | 0.072 | – | 0.0696 | – | 0.0444 | 0.0582 | 0.0824 | 0.0631 | – | 0.0747 | – | 0.0734
I84S | 0.0378 | 0.0519 | 0.0422 | 0.0491 | 0.0658 | 0.0523 | 0.0785 | 0.0578 | – | 0.0545 | 0.0525 | 0.0649 | 0.066 | – | – | 0.0623 | 0.0747 | –
C131M | 0.075 | 0.0691 | 0.0548 | – | – | – | 0.0728 | 0.0804 | 0.107 | – | – | – | 0.0768 | – | 0.0772 | – | – | –
F38K | 0.0536 | 0.0454 | – | 0.0474 | 0.0461 | 0.0562 | 0.0534 | 0.0522 | 0.0554 | – | 0.0508 | – | 0.0462 | – | – | – | – | 0.0525
